Experimental data taken from the supplement of paper PMC3334620.
Whole data set: some 33,000 sequences, median “E-score (-0.5 to 0.5)” near -0.011, cut for the highest 2% near 0.28. The list shows a part of the results.

What follows are sequences tested against T1, Gcr1 (UniProt P07261) (assay: PBM E-score (8-mer binding enrichment) (E-score (-0.5 to 0.5)); higher = stronger / more preferred TF binding; most listed sequences are background and not binding sites). Conditions: protein concentration: 100 nM; construct: GST-full length.
T1 sequence: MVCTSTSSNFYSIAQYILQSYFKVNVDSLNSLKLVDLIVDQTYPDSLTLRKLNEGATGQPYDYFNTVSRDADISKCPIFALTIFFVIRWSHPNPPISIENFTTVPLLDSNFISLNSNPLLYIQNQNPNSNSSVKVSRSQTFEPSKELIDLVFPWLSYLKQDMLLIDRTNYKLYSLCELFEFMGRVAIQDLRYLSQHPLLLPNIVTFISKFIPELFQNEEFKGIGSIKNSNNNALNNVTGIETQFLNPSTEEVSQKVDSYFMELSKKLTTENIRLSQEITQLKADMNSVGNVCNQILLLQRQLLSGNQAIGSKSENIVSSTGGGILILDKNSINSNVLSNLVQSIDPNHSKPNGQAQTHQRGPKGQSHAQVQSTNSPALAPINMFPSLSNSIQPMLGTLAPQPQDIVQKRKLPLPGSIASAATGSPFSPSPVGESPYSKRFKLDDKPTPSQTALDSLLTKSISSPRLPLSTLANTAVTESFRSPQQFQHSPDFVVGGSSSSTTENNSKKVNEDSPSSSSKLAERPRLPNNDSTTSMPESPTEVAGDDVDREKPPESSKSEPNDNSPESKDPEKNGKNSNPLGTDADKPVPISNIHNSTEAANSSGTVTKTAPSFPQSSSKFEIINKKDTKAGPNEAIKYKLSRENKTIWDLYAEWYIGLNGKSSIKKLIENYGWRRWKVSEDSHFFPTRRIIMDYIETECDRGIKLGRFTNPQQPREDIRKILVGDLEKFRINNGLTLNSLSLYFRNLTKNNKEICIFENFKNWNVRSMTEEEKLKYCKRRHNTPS
Method: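 Universal 'all 10-mer' protein binding microarrays (Agilent AMADID 015681) probed with GST-tagged S. cerevisiae TFs (full-length or DBD) made by in vitro transcription/translation (PURExpress), about 100-200 nM. Bound TF was detected with fluorescent anti-GST. Each ungapped 8-mer (which stands for itself and its reverse complement) is scored by the PBM enrichment score (E-score), a modified Wilcoxon-Mann-Whitney statistic from -0.5 to +0.5, computed with the Universal PBM Analysis Suite. Scale: above 0.35 generally sequence-specific binding.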

Sequence	PBM E-score
ACAGTCTG	-0.286
GATTTGAA	-0.0188
CCGTCAAA	-0.0216
CGGATAGC	0.0158
TCGCCCGA	-0.0882
AGCATCAT	0.202
ACATACCG	-0.0373
AGCTCGCA	-0.148
GACCACTC	0.0276
AACTCGCT	0.075
TACGATAA	-0.111
CAAATTTC	0.0854
CTAGGCAC	-0.135
GTACCTCA	-0.0838
CTCGCGAA	-0.0124
GCCTGATA	-0.0293
AAAGGAAG	0.361
ACGGTTTG	-0.185
AACTTGCA	-0.0638
GCCCCTGA	0.0407
CCGTGAAA	0.012
CTTTACTA	0.117
CGGGATCC	0.371
ATAAGTAA	0.11
CCTCTTCA	0.124

Sequence	PBM E-score
GTGAGCCA	-0.0503
CAATGGAA	0.0554
ATAAATAA	0.188
ATTACGAG	0.0949
CCGGTCCC	0.0992
CTCTTAGA	0.0233
AGAAAAAC	0.134
TCGTCACA	0.06
CCATCCCC	0.0989
ACATCATA	0.113
CACATGCG	-0.176
AGCGTGGG	-0.0598
AATTAGCC	-0.0206
AGATTATG	-0.0761
TCGTGCCA	-0.0736
TAGCTCCA	0.0276
CGAACCGA	-0.0923
AGTGGCGG	0.145
CAGCCCAA	-0.047
GGCCACGA	-0.24
CCCACTGC	0.0146
CGAATGGC	0.137
TCGGCCAA	-0.112
CAGGGACG	-0.167
AGATACGA	0.162

Sequence	PBM E-score
ATGGGCTG	-0.157
CACTAGCA	0.00014
GTAACGAC	-0.00515
CATTCTTC	-0.149
TACCAAAA	0.16
ACAGGCCC	-0.0807
AACTAAAT	0.123
AATCACCA	-0.0774
CCACTTTC	0.176
AGCCGGCT	-0.28
CTTAGCCC	-0.201
AGGATCTG	0.0791
AGTTAGTA	-0.141
ACTGCTAC	-0.0644
GACGAAAA	0.0647
CGTTAGCA	0.0177
GGTTTCCA	0.119
AGCATCGG	-0.0896
CGTAAGAG	-0.199
GCTAAGAA	0.101
ACCATACA	0.15
TATGGAGA	0.0442
CCTGAATC	0.162
GAATGATC	-0.0425
CGTTCGTA	-0.0903

Sequence	PBM E-score
ACGTACCG	-0.0561
AGGTACCT	0.0966
GCTATAAA	0.0588
CTTAGCAC	0.0977
GTTGTTAA	0.0289
ATCGATAA	-0.0916
ACCCGTGG	-0.109
CTCGACAA	0.107
GTTTTGGA	0.122
AACCTACG	-0.0314
CAATATGG	-0.161
ACACGGAA	-0.017
CGGGCAAA	-0.142
AGGCTTTA	-0.162
ATCCTTAC	0.0414
ATAGATGA	0.0506
CAGAGCCA	-0.164
ATATACAG	0.039
ACTAGTTC	-0.0543
ACCCCTTG	-0.169
CCAGATTA	0.233
ATGTTACA	-0.12
AAAAGTAC	-0.105
GGTTAGTA	0.0982
GAAATTAC	0.0745

Sequence	PBM E-score
GCAGCTAA	0.329
CGCAGTAA	-0.28
ATCTGCAG	0.0894
AGTTCGGG	0.187
GCATCGTA	0.0744
GCAGTCTA	-0.188
GCGAACGC	-0.155
CAGCTTGC	-0.267
CTAGCAGC	0.221
CACTGTTC	-0.226
TAAGTTCA	-0.00916
AAGCTTTC	-0.115
CAAGCCGG	-0.0195
TCGACTCA	-0.207
ACGCCTAT	0.0338
GAGAGCGC	-0.182
CGCGACCG	-0.0228
ACGGGCGG	-0.21
ATCCGTCA	-0.0781
AAGTTTCT	0.0439
ATTTCCTA	-0.0777
TCAGCAAA	-0.107
CATATGAG	-0.0334
GTAGGGAC	-0.0856
GAGGCGGC	0.167

Sequence	PBM E-score
ACTGGTGC	0.269
TAGCCTAA	-0.202
ATCCGAAA	0.211
ACCAAGAC	0.0875
GTACGGTA	-0.0689
GGCAGGAA	-0.0713
AGTCTCCC	0.0304
AGCGGACG	0.108
CCGCGAGG	-0.13
CTCTTCGA	-0.135
CCCTTCCC	0.0106
TCAATTCA	0.0203
GCCTCCTA	0.136
GGGCGAGA	-0.0433
AGCTATAT	0.0268
CGCTGAAA	-0.054
AAGTGCCG	0.0227
CTCCATAA	0.0785
CTAAGACC	-0.125
AAAAAACC	0.105
AGAGCCAA	-0.13
TGGGACCA	0.13
GCTGGACA	-0.0923
ACTAAATG	0.0763
GAGTAAAA	-0.0867

Sequence	PBM E-score
AGATGTCC	-0.0276
AGTGCCAC	0.00244
AAAACCGG	0.0517
AAGCTGGG	-0.00909
GCGTGCAA	-0.0573
CAGGAAGC	0.434
GCCCACGA	-0.0428
GCGTGAAA	0.0969
ACTCCAAT	0.0978
ATGACTGC	-0.144
GAGTGTGC	-0.3
TCCTCCAA	-0.0784
CTGAACTC	-0.22
ATGACTTG	-0.0158
ACTATGTA	0.0376
GTGCGATA	0.0295
CTGGCAAA	0.0175
ATCTTCGA	0.0259
AATACCCG	0.00049
TACATAAA	-0.0462
CACAATTC	0.0963
GAGCGCCC	0.234
